Structures are written as SMILES. Among all 48,000 compounds or so, about 450 (0.94%) were called active. Not shown: some 19% with an inconclusive outcome. Calls follow the shape of the dose curve; as a rule, active = well fitted inhibition curve with a large enough effect; inconclusive = small, poorly fitted or top-dose-only effect; inactive = no such curve, though single readings can be large or run the other way. Some of the results follow.

This assay is described as follows: Primary qHTS for Identification of Small Molecule Inhibitors of Huntingtin Promoter Activity. Also: nearly all actives have a fitted effect of over 50% in size. As to conditions: HEK293 HTT promoter firefly luciferase reporter (activity 0% = vehicle and -100% = no light), 24 h; series mostly up to 57.5 µM; activity change, negative = inhibition: at the top concentration. In outline:
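Luminescence was read after Dual-Glo reagent and a 10 min room-temperature incubation. Values were normalized to vehicle (0% activity) and zero RLU (-100% activity). Reporter HEK293 cells had been exposed to compounds (up to 57.5 uM final) for 24 h.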
(In qHTS, concentration-response curves come from the screen itself.)
As to `CC(C)CCNC(=O)c1cn(C)c2ccc(S(=O)(=O)N3CCCC3)cc2c1=O`, the activity change, negative = inhibition is inactive: -9.06% [at 11.5 µM].
On to `Cc1ccccc1OCc1cc(=O)n2c(-c3ccccc3)csc2n1`, for which the “activity change, negative = inhibition” value is inactive: 6.96%.
As for `CCC(=O)N1CCc2cc(Br)cc(S(=O)(=O)N3CCC(C(=O)N(CC)CC)CC3)c21`, the “activity change, negative = inhibition” value was inactive: -2.3%.
Turning to `CCn1cc(C(=O)N2CCN(c3cc(Cl)ccc3C)CC2)c(=O)c2cc(S(=O)(=O)N3CCOCC3)ccc21`, the “activity change, negative = inhibition” value is inactive: -16.4%.
Next, `CCC1CCCCN1CCCNC(=O)c1[nH]c2ccccc2c1Sc1ccc(Cl)cc1` (stereo not given): inactive: -27.3%; `CCOc1ccc(C(c2c(O)cc(C)n(CCOC)c2=O)N2CCN(c3ccccc3)CC2)cc1` (stereo not given): inactive: -4.32%; `COc1cccc(CNC(=O)C(CC(C)C)NS(=O)(=O)c2ccc3c(c2)oc(=O)n3C)c1` (stereo not given): inactive: -11.3%.
As to `Cc1c2cnn(CC(=O)N3CCCCC3)c(=O)c2c(C)n1Cc1ccc(F)cc1`, the “activity change, negative = inhibition” value was inactive: -0.115%.
For `CCN(C(=O)CCS(=O)(=O)c1cc2[nH]c(=O)c(=O)[nH]c2cc1C)c1ccccc1`, the “activity change, negative = inhibition” value was inactive: 2.05%.
Next, `Cc1ccc2c(c1)C(=O)OC(C(=O)Nc1ncc(Cc3ccc(C(C)C)cc3)s1)C2` (stereo not given): inactive: -3.34%; `Cc1ccc2sc(N3CCN(C(=O)CCS(=O)(=O)c4ccc(Cl)cc4)CC3)nc2c1C`: inactive: 0%.
Take `CCCN(CCC)C(=O)Cn1c(=O)n(-c2cccc(OC)c2)c(=O)c2c(C)c(C(=O)N(C)C)sc21`: the “activity change, negative = inhibition” value was inactive: 3.95%.
Next, `Cc1ccc(N(CC(=O)N2CCN(c3ccc(Cl)cc3)CC2)S(=O)(=O)c2c(C)nn(C)c2C)cc1`: inactive: -12.9%; `CCC(Sc1nc2ncccc2[nH]1)C(=O)Nc1cccc(OC)c1` (stereo not given): inactive: -20.5%; `COc1ccccc1CNC(=O)C1CCCN(C(=O)c2cnn(-c3ccc(F)cc3)c2-n2cccc2)C1` (stereo not given): inactive: -29.8%.
In the case of `Cc1ccc(NC(=O)C(Cc2ccccc2)n2cccc2)cc1` (stereo not given), the “activity change, negative = inhibition” value was inactive: -2.68%.
On to `COCCCn1c(=O)c2sccc2n2c(CCCC(=O)Nc3cc(C)cc(C)c3)nnc12`, for which the “activity change, negative = inhibition” value was inactive: -14.6%.
In the case of `CC(C)(Oc1ccc(CCNC(=O)c2ccc(Cl)cc2)cc1)C(=O)O`, the “activity change, negative = inhibition” value was inactive: 12.4%.
Regarding `COc1ccc(CNC(=O)Cn2ncc3c4ccccc4n(Cc4cccc(Cl)c4)c3c2=O)cc1`, the “activity change, negative = inhibition” value is inactive: -7.96%.
Turning to `CN1CCc2c(sc3c2C(=O)NC(c2ccc(OC(=O)c4ccccc4)cc2)N3)C1` (stereo not given), the “activity change, negative = inhibition” value is inactive: 87.1%.
In the case of `Cc1ccc(C)c(S(=O)(=O)c2cn(C)c3cc(N4CCCCC4C)c(F)cc3c2=O)c1` (stereo not given), the “activity change, negative = inhibition” value was inactive: -1.52%.
With `c1ccc(CC2=NCCN2)cc1`, the “activity change, negative = inhibition” value was inactive: 18.1%.
Regarding `Cc1cccc(-c2nc3c4ccccc4nc(N4CCN(c5ccccc5F)CC4)n3n2)c1`, the “activity change, negative = inhibition” value was inactive: 0.334%.
In the case of `Cc1ccc(CNC(=O)NCc2noc3ccc(C)cc23)cc1`, the “activity change, negative = inhibition” value is inactive: -3.14%.
For `Cn1c(=O)c2c(-c3ccc(Cl)cc3)n(Cc3ccc(Cl)cc3)cc2n(C)c1=O`, the “activity change, negative = inhibition” value was inactive: -10.1%.
Take `COC(=O)c1cc2sc(Cl)cc2n1Cc1c(C)cc(C)cc1C`: the “activity change, negative = inhibition” value was inactive: -6.73%.
Take `COc1ccc(-c2c(C)c3ccc(O)c(CN4CCOCC4)c3oc2=O)cc1`: the “activity change, negative = inhibition” value was inactive: -17.3%.
On to `CCn1c2ccccc2c2cc(NC(=O)COc3ccc(C)cc3C)ccc21`, for which the “activity change, negative = inhibition” value was inactive: 0.846%.
As to `COc1ccc(OC)c(CNC(=O)c2ccc(C)c(NC(=O)c3nsc4ccccc34)c2)c1`, the “activity change, negative = inhibition” value was inactive: 12.5%.
Turning to `CCCCNC(=O)C1CCN(S(=O)(=O)CCC)CC1`, the “activity change, negative = inhibition” value is inactive: -6.4%.
Next, `Cc1ccc(Cn2c(CNS(=O)(=O)c3cccc([N+](=O)[O-])c3)nc3cccnc32)cc1`: inactive: -9.82%.
On to `COc1ccc(-c2cc(C)no2)cc1S(=O)(=O)Nc1c(C)cc(C)cc1C`, for which the “activity change, negative = inhibition” value was inactive: -29.9%.
With `CCOc1ccc(OCC)c(NS(=O)(=O)c2cc(-c3cnc(C)o3)ccc2OC)c1`, the “activity change, negative = inhibition” value is inactive: -22.2%.
Next, `COc1ccc(OC)c(NC(=O)c2c(N3CCCC3=O)c3cc(OC)ccc3n2C)c1`: inactive: -7.39%.
On to `CCc1nn2c(=O)cc(COC(=O)c3cccc(NC(=O)c4cccs4)c3)nc2s1`, for which the “activity change, negative = inhibition” value is inactive: -3.7%.
Take `CCOC(=O)c1c(-c2ccccc2)csc1NC(=O)c1cc(=O)c2ccc(C)cc2o1`: the activity change, negative = inhibition is inactive: -2.26% [at 11.5 µM].
In the case of `Cc1ccccc1-n1nc(CO)c(C(=O)NCc2cccnc2)n1`, the “activity change, negative = inhibition” value is inactive: -5.98%.
Consider `COc1cc(C2NC(=O)c3c(sc4c3CCN(C)C4)N2)cc(Br)c1OC(=O)c1ccc(C)cc1` (stereo not given), for which the “activity change, negative = inhibition” value was inactive: -0.585%.
Take `CCOC(=O)C1CCN(C(c2ccc(SC)cc2)c2c(O)cc(C)n(Cc3ccco3)c2=O)CC1` (stereo not given): the “activity change, negative = inhibition” value was inactive: -0.281%.
Next, `COc1ccc(N2CCN(C(=O)CCn3c(=O)[nH]c4cc(OC)c(OC)cc4c3=O)CC2)cc1`: inactive: 1.65%; `Cc1cccc(NC(=O)CCS(=O)(=O)c2cccc3nsnc23)c1C`: inactive: -7.6%.
As for `COc1ccccc1N1CCN(c2ncnc3onc(-c4ccc(F)cc4)c23)CC1`, the figure is inactive: -4%.
Consider `CCOC(=O)CSC1=Nc2ccccc2C2=NC(CCC(=O)NCc3ccc(F)cc3)C(=O)N12` (stereo not given), for which the “activity change, negative = inhibition” value was inactive: -12.5%.
As for `O=C(NCc1cccc(F)c1)C1CCCN(C(=O)N2CCOc3ccccc32)C1` (stereo not given), the “activity change, negative = inhibition” value was inactive: -7.03%.
For `CC1CN(C(=O)N2CCC(C(=O)NCc3cccs3)CC2)c2cc(Cl)ccc2O1` (stereo not given), the “activity change, negative = inhibition” value was inactive: -22.9%.
For `Cc1ccc(C)c(NC(=O)C2CCCN(c3nc4ccccc4s3)C2)c1` (stereo not given), the “activity change, negative = inhibition” value was inactive: 13.9%.
For the compound `CCc1ccccc1NC(=O)C1CCN(S(=O)(=O)c2ccccc2)CC1`, the “activity change, negative = inhibition” value is inactive: -16.9%.
Regarding `COc1ccc(CNC(=O)C(C)Sc2nc(-c3ccccc3)cc(C(F)(F)F)n2)cc1` (stereo not given), the “activity change, negative = inhibition” value is inactive: -13.6%.
Next, `O=C(Cn1ccnc1[N+](=O)[O-])NCc1ccccc1`: inactive: 10.5%; `CCCCOc1ccc(C(=O)Nc2ccc3oc(-c4cccnc4)nc3c2)cc1`: inactive: 1.56%.
`O=C1c2ccccc2C(=O)C1c1ccccc1`: the “activity change, negative = inhibition” value was inactive: 2.37%.
As for `Cc1ccc(CNC(=O)c2ccc3c(c2)c(C)c(C)n3Cc2ccccc2)o1`, the figure is inactive: -10.6%; as for `O=C(COc1ccccc1Cl)OCc1cc(=O)n2nc(C3CCCCC3)sc2n1`, inactive: -10.2%.
Turning to `COCCOC(=O)C1=C(C)NC2=C(C(=O)CC(c3ccccc3OC)C2)C1c1cccc(O)c1` (stereo not given), the “activity change, negative = inhibition” value was inactive: 11.1%.
In the case of `CCn1ccc2cc(S(=O)(=O)N3CCC(C(=O)NCCc4ccccc4Cl)CC3)ccc21`, the “activity change, negative = inhibition” value was inactive: -8.78%.
Next, `CCc1ccc(C(=O)c2cnc3ccc(F)cc3c2S(=O)(=O)c2ccccc2)cc1`: inactive: -27.9%; `CC(C)OCCCNC(=O)c1cn(C)c2ccc(S(=O)(=O)N3CCCCCC3)cc2c1=O`: inactive: -10.8% [at 11.5 µM]; `Cc1cccc(C(=O)Nc2ccc(-c3nc4ncccc4o3)cc2C)c1`: inactive: 32.6%.
Next, `Cc1cccc(S(=O)(=O)c2cn(Cc3ccccc3)c3cc(N4CCOCC4)c(F)cc3c2=O)c1`: inactive: -20.4%.
With `O=C(O)CCCc1c[nH]c2ccccc12`, the “activity change, negative = inhibition” value is inactive: -12%.

Source of the values: PubChem BioAssay AID1508623 (National Center for Advancing Translational Sciences (NCATS), 2021).
